This is one part of the list. At the low end of the ranking the order means little. The protein was read in a cell extract, so binding may be indirect.
These sequences were tested against T1, HNF4alpha2 (COS-7 nuclear extract) (UniProt P41235) (assay: protein-binding microarray). Conditions: COS-7 nuclear extract on double-stranded Agilent 4x180k PBM; binding buffer, salt, pH and temperature not given; high values mean tight binding; double strand, one strand shown; sequences stand for … in …GCCTAGGGAGATTAGAGTATCGGTCGA.
T1 sequence: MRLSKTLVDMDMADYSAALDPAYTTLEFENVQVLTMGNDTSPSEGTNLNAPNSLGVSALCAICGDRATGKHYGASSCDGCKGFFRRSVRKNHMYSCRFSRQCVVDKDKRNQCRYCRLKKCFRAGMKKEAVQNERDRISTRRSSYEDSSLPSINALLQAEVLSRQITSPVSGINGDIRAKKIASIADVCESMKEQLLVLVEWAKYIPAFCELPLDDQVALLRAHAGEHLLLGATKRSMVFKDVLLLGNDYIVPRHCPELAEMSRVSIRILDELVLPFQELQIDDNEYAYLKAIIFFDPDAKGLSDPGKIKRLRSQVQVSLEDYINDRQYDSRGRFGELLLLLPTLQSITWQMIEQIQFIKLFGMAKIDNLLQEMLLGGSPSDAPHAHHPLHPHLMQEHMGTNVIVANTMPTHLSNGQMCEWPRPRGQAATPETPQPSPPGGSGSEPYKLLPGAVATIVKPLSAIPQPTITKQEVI

| Sequence | binding signal (log2 normalized intensity) |
| --- | --- |
| CCGCATTTTCCTTTGTTGGTTTTGCCCGAG | 2.11 |
| CACTGAAGTGAGTTAATAAATACTGGAGGA | -0.658 |
| AAGAGAGCCATTGGTGTAACTCTGGGTCTG | 0.658 |
| TCAGGGAGCTTTTACCTCAAATAAAGGTCA | 2.96 |
| TGACTTTCAGAAAGTCCTTGGAAACTGTTC | 0.173 |
| TGACAAAGACAGATTAGATCTGCGTAAGGG | -1.24 |
| TATCTTCAATGATAAGGAATGAGGAGTCAG | 0.365 |
| GCTGCCTTTTAGCTCCATACTTCAAGAAGT | -1.11 |
| ATGTGACCTTCACCCTGCTGTAAATAAAAT | 2.03 |
| TTGCCCTTTAGTTATCTCTTCTTTCTGTAT | 2.11 |
| CTGCCTGCTTGGCCTCTCCACTTGGGTATC | 0.729 |
| TCCAAAATATTTGCAGTGAGAAGAGGAAAA | -1.26 |
| AAGCTGGAAGGACAGCATTCCTGTCTGCGA | -1.11 |
| GAGATAAGTCACCTTATCAAGTCCGAACTC | 0.669 |
| GGAGCCAGGGCCTTTTCAAGGGAGTCCTCC | -1.08 |
| CCGCGCGCAGGGCGGACAGCGCCGCCACCC | -1.24 |
| AACTAGGGCAGGGACTTTGCCCTTTTTAAT | 5.86 |
| AAGCTGTGTCAGGCATTGTACTCACTGTTA | 1.21 |
| AATACCATCATCTCAGGGAGTGCAAACTTC | 1.13 |
| GGTCAAAGGTCAGTTTCTTTAAGACAAGTG | 5.53 |
| AAGTGGACTTTAGAACCCAAATAGACTTAA | 3.71 |
| TCTCCTCTGAACCCTCTTCTCAACTAGGCC | 1.38 |
| ACCAGCGTAATTCTGGCTCTTTGAGTGGTT | 0.76 |
| GATGTCTGCTTCTTGGGTCAAAGTCTCTGG | 3.53 |
| GTAATGACATGCAGTATGGGGACTTTGGAC | 5.99 |

| Sequence | binding signal (log2 normalized intensity) |
| --- | --- |
| TGAGCAGCTGGAGGGGGACTGGAAGGGAGA | -0.808 |
| ATTCTCACCACTAGGAAACTGACCTTTGCT | 5.16 |
| AGCAGATAAGAACACAAAAAGCCTGAGCAT | -1.14 |
| ACTCCTGCCCCTGTGCAATACTTTCCCTGA | 1.07 |
| CCCCACTGTTTTACTGGGGCCCATTGTATG | 0.384 |
| TGCTCCAGTAAAAGCTCTACCTGACCTCCC | 2.94 |
| ATGAGCCCCCTAAAAAGAAAACTAGATAGT | 1.21 |
| TTTGTTACTTACAGACTTTCAACATTATGA | 1.42 |
| CACATGGTGTCTTTTGTTGTTGTTAGCTGT | 2.39 |
| TCTTTTTTCTGAAGACCTTCAACTGATTAG | -0.0462 |
| AAATAGCTGGGTCTCACTCTGACCCCTCCC | 4.93 |
| GGTTGTCAGACTGGTGTAGTGGGGAGGGCA | 1.41 |
| TTAGAGAACGGGTCAAGAGGGACAAAATGC | -1.17 |
| TGCATTCCATCAGTAGTATTACCTGCATCT | -1.02 |
| CCTCTGCCTAGGAAAACCAGAGACCTTTGT | 3.13 |
| GTAAACTAGTGATGTGGAAATCTGGACTCA | 2.97 |
| TGTATCTATCTCTATGTCCACAGAAAGGCA | 0.91 |
| CTGGAATTTCAAAGGGAGCATATGTATGTC | 1.44 |
| GGAGAACAAACCTTATCTCTCAAGGTTCCC | -1.16 |
| CAGATTAGAAGGCAGAGAAAGATAGGAGAT | -1.09 |
| TATACCTGTACACTTACAAGTGTACAAAGG | 2.65 |
| TTCTTTCGGTCACCCACACAAAAATGTGCC | -1.3 |
| CAAACAAAAAACCCTAGAGATGTACACAGT | -0.939 |
| ACTCTGTTTGTAAAGTCTACAAGTGGATAT | 1.55 |
| CCATTACCACATTCTCACCACTAGGAAACT | -1.15 |

| Sequence | binding signal (log2 normalized intensity) |
| --- | --- |
| GAAGATTCTTTGGTTGGGAATAACATTGTG | 1.79 |
| ACGTAAACAAGTAAGGAAGACAAGACAAGG | -1.21 |
| CCCACCTCCACTCTCATAAAAGAGGCCAAT | 1.66 |
| TAGCACTGACCAGCTCCAAAGTCCGCCACT | 2.36 |
| GCTAGAGCGCGCTGGAATCTTGATAATGCC | -1.27 |
| GCTTCCAATCCTGGAGAAGGAGCACCAATG | -1.02 |
| TAAAATAACGACCTTTGGGCTAAAAAGGAA | 2.51 |
| CCCTCTGGTGCTGATGTGTTCGCCCCTAGG | 1.23 |
| GATAGGGAGGGGTAAGGGTGGGGGTGGGGA | -1.14 |
| CTGAATGGAATGAAGATACTGGATAACCTT | 0.695 |
| GGTCAGCAATCTCAAAGACTGGAGGTAGAT | -1.07 |
| TCTTGACCAGGCAAGCTTGACCTTTGATCC | 10.2 |
| ACAGTGCAGCACAGCAGCTGACAGATGGTG | -1.19 |
| CACAGCTCTAGAGGGCTGCTTATCTAGGAT | -0.814 |
| TTTTCTTTTTAATCCTGGATTCCTCCAGCC | -0.837 |
| AATGGGCCTAGGTATTGAGGGAGCAAAGGG | -0.79 |
| TATCACCCTCCCTATCAGCTACTCATGCTT | 1.01 |
| TGCAGAGTGTCCCACTTCAGGCAGGAATGC | -1.08 |
| GTCCCCCACCTGGAATGTGCTCCCGACTGC | 3.41 |
| GCCTAGCACAGTGCCTGGCATGTGATAGGC | -1.12 |
| TCAGTTTCTGAGAGTGGCAAGCAGGAGCTG | -1.2 |
| TCCTCACAGTGCAGCACAGCAGCTGACAGA | -1.13 |
| TAGTGTGTCAGGGAAGGCTAGCATTCCTGC | -1.02 |
| CAGTCAGACACGCCTTGCACAAATTTCAGA | -1.06 |
| ACTTTATATTCCTTTGTATCTGTACCTTAA | 2.1 |

| Sequence | binding signal (log2 normalized intensity) |
| --- | --- |
| GGCCTTTACCCCTTGAGTTTGAACTTTGAC | 6.48 |
| AAGGTCGTGTGCTTATCACATCTATCTGCC | -0.0176 |
| TCATTGAGCCCTCCCCTTGTCTGATAAGAT | 2.66 |
| AAAGGTCACTTCTGTTCATTGATAAAGGGT | 2.42 |
| GGGCGCCTCCCGGAGGACCCGACCGGAGAG | -1.11 |
| GGACTAGTAGAGTGGGGAGGTAGGGCAAGA | -1.28 |
| GAAACATTTTACTCACCCCTTGCTGAGTGG | 1.82 |
| CCCAGGGAGAGCTGGACTTTCATCTGAGTC | 2.92 |
| GGTGAAAGATAAGGGCTAGTTCATTAAACA | -1.11 |
| TCAAAAGCTGTGTGCTCCTGTAGAATGACC | 2.33 |
| ACACTGATACAGCATGGCCCAGGGACTCAG | -1.25 |
| TTAAGAACTGGAGTAAAGGTCACTCTTGCT | 3.15 |
| CACTGATAACATGAGGATACTGATAACATG | 0.0281 |
| GCTAATGAGATAATGCTGGTAAAGCACTTT | 0.779 |
| ATGGAATTTAATTAGCTTCTGTTCAGGAGT | 0.684 |
| GCTGTGTACTTTGAACTGAAGGATATTGGC | 3.57 |
| CTCAGAGTCTGTGGAGACACTGCCAGTGTC | -0.553 |
| CAGTGATCTTATCGCCTAGTACTCCTGCCC | 0.389 |
| GGGGAGGTGGGAAAAGAAATGTAGTGACAG | -0.838 |
| GCATGACCTCAACTCTCAGTTTGGCTCTTA | 0.114 |
| TCTAGATAAGTTTATTTACTTATGTTGTCC | 1.48 |
| CAAATTTGGGAGGGAAGAGGCAAGGAAAGA | -1.15 |
| TAGGCCTTTCCTGGGCCTTAAAGCATGACA | -0.733 |
| TCATGAGTAGGTTTACTAAAGGAAGGGAGG | -1.18 |
| ATGTGTGCTTTCAGGTGTGAACCCAGGCAA | 1.86 |

| Sequence | binding signal (log2 normalized intensity) |
| --- | --- |
| CATTGGAGGTCACCCTGTGTCAGCGACTGG | -1.1 |
| TGGAGATAACACACAGGCTCAACGGGTTAG | -1.09 |
| CACCAGAAAAATGTACATGTGCAAAAGCAC | 0.628 |
| ACCCGTCCGCTTGATGCCTGTTGCTCAGAA | -1.08 |
| ACTTCTCTCGGCCTTAAGAGTCAAAGGGCA | 3.51 |
| TTGGAATACATGGAATGCTCTCTCTCTTTT | 0.781 |
| GGGGCAGAGTGAGCAGCACTTTTGGAGTTT | 1.51 |
| TAGCCTTTTTGCCCACAGACTAGACCATCA | -1.11 |
| ACCACCTTCCCCCATCCCCAACAAAGCTCT | 4.7 |
| ACAGCGAGAGTCCTCTTGGTTTATGTTCAC | 1.67 |
| AGTAGTTCTTCTGGTTAGTTTTTCAATGGC | 1.34 |
| TGTTACCTTTGGACTGTCCTTTGCTAGATT | 3.5 |
| CAATTTGATTTGTATGATCTTGGGTATATC | 1.75 |
| CCAGAATGTTCAAAAGTGTGTTGGTTTCCT | 1.3 |
| AAGGTGGTTGCTGTTATCTTCATTTATAGA | 1.23 |
| TCAGGAAGGAATAAAAGGCTGTTCTGATGC | -1.19 |
| AGAAGAAACCTTTGCCCAACAGGATTAGTG | 0.761 |
| GAGTCTCCACTATGACCTGTGCTTTGCCAT | 0.881 |
| CCCGCCTAACCTTGAGGAGCCCTATCCGCA | -1.07 |
| TGCTCCACGCAAACACAAAAGGATCACAGT | -1.15 |
| TTGTCCAGCAGACACGGGCAGGTGAGAGGG | -1.07 |
| AGTCTAGATAATCTAAAGCCGAAAGAGGGT | -1.01 |
| TAGACACTGGGGACTAGTAGAGTGGGGAGG | -1.07 |
| GTGGTGGTTCTTGTTTCATTGCACAGTTAC | 2.04 |
| GCTCGGCCCCAGTCCCCCGGACCAGGCCGG | 2.88 |

| Sequence | binding signal (log2 normalized intensity) |
| --- | --- |
| ACAGCCTTTTGAGTTTCTACCATAGACCCT | 1.05 |
| TCAGCCTGGCTGTGTAGACATCACCTGCTC | -0.975 |
| GGCCTCTCAGGTCAGGGAAGACTGATAAGA | -1.07 |
| TAGGCATTGTCTTGAAAGATAAAGTGTCTC | 0.294 |
| TTTACTTAACCTTTGATCATATGCATTTCC | 4.18 |
| TCATTTTTTTGATTACCTTAGGGGGAAACA | 0.796 |
| CTGATATAGAACACTTGTACATACTTTTGG | 1.5 |
| GTCTGAATTCTAGTCCTATCACTGTCTAGC | -1.1 |
| TGTGATAGGCATGCAAACTTTGTTTAATGA | 2.47 |
| ACTGCCTCTTACAACGAGGTGCCAGAAACC | -1.07 |
| ACTGCCCTTTGGTGCCTCTTTTTTCTTGTT | 2.16 |
| TGCATAATGGAGCAAAGGTCATCCTGGGCT | 4.87 |
| AGAGCAATCATGGGCCCACAGATGATCAAA | -0.805 |
| GGCGCAGTCCTCTCTCGCGAGAGCCGAAGT | -1.15 |
| ACAAAAACCAAAGGTCACTTCGCATTTCCA | 3.42 |
| TAAAAGGTCCAGAGTTCACTGCAGGCTGGG | 2.77 |
| ACCTTTAAGCCTATAGTTTCTGTTTTGATC | 2.12 |
| TAATCTTCCTTCGGGATTATGGTAGGCAGC | 0.91 |
| CAGGTCAAAAGTTCAAACTTTATTTGATGA | 2.99 |
| ATGTCCTTTGGAGTGCTTTCATCTTTGCGG | 1.16 |

— publication PMC10726135
